# Reference: the BET-seq Pho4 binding data (Le et al. 2018)
# The other results are listed elsewhere or left out. These are noisy estimates, calculated here from bound and input reads.
# Biological target: T1, Pho4 (S. cerevisiae) (UniProt P07270)
# T1 sequence: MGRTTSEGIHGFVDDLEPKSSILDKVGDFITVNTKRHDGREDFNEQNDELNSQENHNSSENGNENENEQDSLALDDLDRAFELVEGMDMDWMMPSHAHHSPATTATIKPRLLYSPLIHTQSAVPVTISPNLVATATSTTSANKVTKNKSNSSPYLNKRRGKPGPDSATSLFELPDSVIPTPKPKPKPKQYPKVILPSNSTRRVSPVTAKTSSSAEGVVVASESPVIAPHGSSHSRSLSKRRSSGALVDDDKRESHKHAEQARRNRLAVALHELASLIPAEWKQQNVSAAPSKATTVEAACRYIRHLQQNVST
# Assay: relative binding free energy (BET-seq); higher = weaker binding
# Details: reference: library average
row,Sequence,relative binding free energy [kcal/mol]
1,AGTGGCACGTGGTCGG,-0.24
2,ATCAGCACGTGGAGTG,-0.12
3,GGTAGCACGTGAGTGT,0.22
4,TTGAGCACGTGTGGTT,0.06
5,GATAGCACGTGATGTG,0.14
6,ATGATCACGTGTGGGA,0.13
7,AGGGCCACGTGTGCGG,-0.11
8,GATAACACGTGTTTGT,0.13
9,TGCATCACGTGGCGTG,0.08
10,GAGTGCACGTGTATGT,0.09
11,ATAGTCACGTGTTGGC,0.12
12,TGGTTCACGTGGTTCC,0.24
13,GGAATCACGTGAAGTT,0.29
14,GGGTTCACGTGTAACA,0.44
15,TTGGGCACGTGCTGAT,-0.1
16,TCGGACACGTGTAGTT,0.17
17,TATGACACGTGTTAAG,0.02
18,GGTGACACGTGCTTTT,-0.06
19,TTTTACACGTGTCATT,-0.01
20,CCAGTCACGTGGGTGG,0.1
21,AGGCACACGTGAGAGG,0.21
22,GTCAGCACGTGGGTTA,-0.13
23,GCGAACACGTGGGGGC,0
24,TAGTTCACGTGGACGT,0.2
25,TGAGACACGTGCAGGT,-0.02
26,CTGGCCACGTGGTTGT,-0.02

row,Sequence,relative binding free energy [kcal/mol]
1,GATGACACGTGGAGGG,0.12
2,AGAGGCACGTGTTAAA,-0.07
3,TATAGCACGTGGTGGA,-0.2
4,TTCTTCACGTGTTTCG,0.31
5,TCGCGCACGTGGAGAG,0.13
6,ATTTCCACGTGGGATG,-0.1
7,TGAGTCACGTGGAGGC,0.14
8,CGGGGCACGTGGTGAG,-0.14
9,CGGCTCACGTGGGAGG,0.1
10,AGGTCCACGTGTGAAT,0.18
11,TAGTTCACGTGGGGGA,0.08
12,TTGGTCACGTGTACTG,0.18
13,AGAAGCACGTGTTAAG,0.05
14,AGTCTCACGTGAGGTT,0.28
15,GAGGGCACGTGAACGT,0.12
16,CTATTCACGTGAGTGT,0.38
17,TGTTGCACGTGGGTCC,0
18,GAGGTCACGTGGGTGC,-0.01
19,TTGCACACGTGTTGGG,0.03
20,GCAGTCACGTGGTTAG,-0.06
21,TAGATCACGTGACGTT,0.37
22,TCTTGCACGTGGCTGA,0.05
23,AGCATCACGTGGAGTG,0.08
24,GTGTTCACGTGTGTGA,0.26
25,TGGGCCACGTGGCTAG,-0.09
26,CGGGACACGTGTGTTT,0.05

row,Sequence,relative binding free energy [kcal/mol]
1,TTTGGCACGTGTGATT,0.06
2,GTGGTCACGTGGATTC,0.33
3,ATTGGCACGTGTGTTG,-0.08
4,TACGGCACGTGTCGTG,-0.11
5,TTGTCCACGTGAAGGG,0.34
6,TGTGTCACGTGGACCG,-0.03
7,CTGGGCACGTGTCGGT,-0.07
8,TCTTTCACGTGCAGTT,0.23
9,GGAGTCACGTGTTGGT,0.19
10,GGAATCACGTGGAGAT,0.2
11,TGAGTCACGTGAGATT,0.3
12,GTAAGCACGTGTGAAT,0.04
13,CATCACACGTGGGTGG,-0.03
14,TATGGCACGTGTGCAT,-0.09
15,TCTCTCACGTGTGGGG,0.2
16,CAGGGCACGTGTTTTT,-0.16
17,TATATCACGTGTGAAG,0.33
18,GTGTGCACGTGGCGGA,-0.06
19,AGATGCACGTGTGTCA,0.12
20,GGCTGCACGTGGGGCG,-0.12
21,ATATGCACGTGTTAAA,-0.1
22,CAGAACACGTGTGGGT,0.07
23,AGGAGCACGTGGCAGT,-0.38
24,ACAAGCACGTGGGTTT,-0.18
25,AATGACACGTGTAGGT,0.02
26,TCTAGCACGTGGAGTG,-0.18

row,Sequence,relative binding free energy [kcal/mol]
1,ATTTACACGTGGATTA,0.21
2,GTTTGCACGTGTAGAA,0.13
3,TGGTCCACGTGGTTGA,0.01
4,CTAGGCACGTGGTGGT,-0.08
5,TGTCTCACGTGGAAAT,0.34
6,TGTTTCACGTGCTATT,0.14
7,TACTGCACGTGTTTGG,0.03
8,TGTGTCACGTGGTATT,0.08
9,TGGGTCACGTGGGCCA,0.04
10,TTTGACACGTGGGAGA,-0.12
11,GTATACACGTGTAATT,0.22
12,AGAGTCACGTGGGAGC,-0.05
13,GGTTGCACGTGGGCTA,-0.15
14,TGTTACACGTGCATTG,0.03
15,TAGAGCACGTGGCGTT,-0.13
16,GCAGGCACGTGTGAGG,0
17,GATCTCACGTGGGAGT,0.21
18,GTTTTCACGTGATTCT,0.26
19,TGCAGCACGTGTTTAG,-0.17
20,GCAGGCACGTGAGTTT,0.14
21,GAAGGCACGTGACGGG,0.07
22,GGTCTCACGTGGCTGT,0.27
23,GGCTACACGTGGGTCT,0.13
24,CGCGTCACGTGGGAGT,-0.04
25,TCGGTCACGTGGGAAG,0
26,CTAGTCACGTGTGCGT,0

row,Sequence,relative binding free energy [kcal/mol]
1,GATTGCACGTGGGCTG,-0.17
2,CTTAGCACGTGTGTAT,-0.14
3,AGTATCACGTGGTCTT,0.02
4,GTGTGCACGTGGGTTG,-0.08
5,GCTTGCACGTGTGTAG,0.15
6,GGGGGCACGTGGTAAT,-0.05
7,TGGCGCACGTGTATGG,-0.11
8,ATTGGCACGTGTGACT,0.02
9,TTGATCACGTGGGTTC,-0.09
10,CGCTGCACGTGGGTAG,-0.26
11,ATCAGCACGTGATGGT,0.12
12,TACTTCACGTGAAGTG,0.26
13,TAGTACACGTGTCGGT,-0.04
14,CGGTACACGTGTCTGT,0.15
15,TCATGCACGTGTAATG,0.19
16,ATCATCACGTGCGTGG,0.11
17,AGTGTCACGTGGCGTG,0.13
18,CATAGCACGTGGAGTT,0.03
19,ATAATCACGTGGTAGA,0.22
20,TTAAACACGTGATGAT,0.17
21,GGGCACACGTGGTGAG,0.15
22,GCGTGCACGTGGGCAG,-0.15
23,GTTTTCACGTGACAAG,0.43
24,GAATGCACGTGGTGCT,-0.1
25,ATGAACACGTGTTGGA,0.08
26,GGTAACACGTGAGTGT,0.2

row,Sequence,relative binding free energy [kcal/mol]
1,TTTTCCACGTGTGTGA,0.07
2,ATTTTCACGTGATTCT,0.19
3,TTCTGCACGTGGGCTT,-0.23
4,AGGTGCACGTGAACTT,0.3
5,GGTGTCACGTGGAACG,0.13
6,TGTTACACGTGAAGGT,0.24
7,GTATGCACGTGTAGGG,-0.03
8,TTAGCCACGTGTTATT,-0.02
9,TTAATCACGTGACTTG,0.27
10,TGAGGCACGTGGTGTC,-0.18
11,GGTGGCACGTGTGAGA,0.11
12,TTACGCACGTGTTCGG,-0.19
13,GAGGGCACGTGGTCGA,-0.1
14,TTTCGCACGTGTACGT,-0.01
15,AGAGGCACGTGTGTGC,-0.17
16,ATTAGCACGTGGCCGG,-0.14
17,ACGAGCACGTGGGGGG,-0.43
18,ATAGTCACGTGGGAAA,0.01
19,GGCGTCACGTGTCGGT,0.11
20,AATTACACGTGGAGGG,-0.04
21,GGAGACACGTGCGTTT,0.17
22,CGTTACACGTGTTCGG,0.05
23,CTGGTCACGTGGGCCT,-0.01
24,AGTTTCACGTGGGCGC,0.14
25,AGATTCACGTGGTTTT,0.23
26,TGATTCACGTGTGTAA,0.2

row,Sequence,relative binding free energy [kcal/mol]
1,GTGAGCACGTGTGAGC,0.03
2,AATGTCACGTGGCTGT,0.05
3,TAAAGCACGTGTGTTA,0.07
4,TTTGTCACGTGGACTG,0.07
5,GAAGGCACGTGGTTGT,-0.12
6,ATTTTCACGTGGTATC,0.19
7,TTGTTCACGTGTTCAA,0.3
8,CAAGGCACGTGTAGCG,0.14
9,CGTTTCACGTGGGTAC,0.14
10,TGTGGCACGTGGAACG,-0.08
11,AGTGACACGTGTGAGT,0.09
12,AGTCGCACGTGGATGT,0.02
13,TGGGCCACGTGCTGTT,-0.06
14,CCGTGCACGTGGTGGG,-0.2
15,GGAGGCACGTGTGATT,0.09
16,ATGAACACGTGTTATT,0
17,ATGGGCACGTGCGGCA,-0.19
18,GGGAGCACGTGATGTG,0.1
19,CTGCTCACGTGGTGTG,0
20,TTAACCACGTGGTAGT,-0.06
21,CTCGGCACGTGGGAGA,-0.02
22,TGTTGCACGTGAGCTA,0.04
23,TAATCCACGTGGTAGT,-0.08
24,ATTGACACGTGTTAGA,0.07
25,ATGATCACGTGGAAGA,0.23
26,ATGTTCACGTGGGTTT,0.24

row,Sequence,relative binding free energy [kcal/mol]
1,GTTGCCACGTGGGTAG,-0.2
2,GATGACACGTGAGTGG,0.11
3,GTAATCACGTGCATTT,0.25
4,ATGCGCACGTGGATGG,-0.15
5,GATTGCACGTGGACGG,0.1
6,AGTGCCACGTGTGGGA,-0.04
7,AGGTACACGTGGGATA,-0.03
8,AAGTACACGTGGAAGG,0.22
9,GGTGCCACGTGGGCGC,-0.18
10,GATAGCACGTGGGCGA,-0.1
11,AATAGCACGTGAATGT,0.28
12,ATGGTCACGTGTTTGT,0.14
13,GGTTGCACGTGGCGAT,-0.04
14,AATAGCACGTGTCTTT,-0.01
15,TGAGCCACGTGTTCGG,-0.03
16,TTAAGCACGTGTGAAA,0.07
17,GCGTGCACGTGTAAGT,0.05
18,AGAGGCACGTGGAAAT,0.05
19,TTCCACACGTGGTTTT,0.12
20,TTTGGCACGTGAACGA,0.11
21,AATTTCACGTGAACGG,0.43
22,GTAAGCACGTGTGCGG,-0.06
23,TCTGTCACGTGAGCGG,0.21
24,TTGGGCACGTGCTTAT,-0.06
25,TACTACACGTGTGGAG,0.23
26,GGTATCACGTGGCTTG,0.15

row,Sequence,relative binding free energy [kcal/mol]
1,TGTCGCACGTGATGGA,-0.01
2,AGTTGCACGTGATGAT,0.09
3,TGCAGCACGTGAGAGT,0.24
4,TCTTGCACGTGGTATT,-0.27
5,GTGTGCACGTGACTGA,0.12
6,TAGTACACGTGCTTTG,-0.03
7,TGGTGCACGTGGGGGG,-0.06
8,AGTGACACGTGCGGGG,-0.13
9,ATCTACACGTGGGGTT,-0.12
10,GTGGTCACGTGGCTTA,0.15
11,GTGTGCACGTGTCTTG,0.08
12,GAACTCACGTGGTGGA,0.36
13,AGGGTCACGTGTACAG,-0.02
14,TTTTGCACGTGTCGAG,0.07
15,TTTTGCACGTGGGTGC,-0.14
16,TTTTGCACGTGATGCT,0.04
17,AGGGACACGTGGGGTC,-0.07
18,ATGCGCACGTGTATAG,-0.1
19,AAGGACACGTGTCGGG,0.18
20,GTTTACACGTGGTTAA,0.04
21,GGTTGCACGTGATGAA,0.14
22,TGTTCCACGTGGGGAA,-0.06
